Assay results published in US11324742B2, “Treatment of demyelinating diseases” (Victoria Link Ltd., priority 2018, dated 2022).
Like-named read-outs stand apart in the source and are kept apart here.

Experiments:
[1] = tested on: experimental autoimmune encephalomyelitis (EAE) model of MS; assay: EAE model of MS in male mice, treatment from disease onset; assay type: in vivo, male C57BL/6 mice; settings: 0.01 mg/kg daily i.p. from onset
[2] = tested on: experimental autoimmune encephalomyelitis (EAE) model of MS
[3] = tested on: experimental autoimmune encephalomyelitis (EAE) model of MS; assay: EAE model of MS, daily treatment from day 17 (disease score, total disability, weight); assay type: in vivo, female C57BL/6 mice
[4] = 0.01 mg/kg i.p. daily from onset (Example 31)
[5] = daily i.p. from onset, 0.003-0.1 mg/kg all significant

`CN(C(=O)/C=C/c1ccoc1)[C@@H]1CC[C@@]2(O)[C@H]3Cc4ccc(O)c5c4[C@@]2(CCN3CC2CC2)[C@H]1O5` [nalfurafine, (E)-N-[(4R,4aS,7R,7aR,12bS)-3-(cyclopropylmethyl)-4a,9-dihydroxy-1,2,4,5,6,7,7a,13-octahydro-4,12-methanobenzofuro[3,2-e]isoquinoline-7-yl]-3-(furan-3-yl)-N-methylprop-2-enamide] was tested, and the “disease score, recovery from paralysis” value [1] was “effective at enabling functional recovery from paralysis”, the “number of days in recovery” value [1] was “sustained functional recovery” and the “percentage of mice recovered (score ≤0.5 by day 23)” value (from here on “percentage … (score ≤0.5 by day 23)”) [1] was “promotes full recovery”. For the same compound, the “disease score, functional recovery” value ([2]; 0.01 mg/kg i.p. daily from onset (Example 30)) was “superior to clemastine fumarate”, the “number of days in recovery” value [2, 4] was “sustained recovery” and the “percentage of mice recovered (score <0.5 by day 23)” value [2, 4] was “all of the mice recover”. The “recovery (disease score)” value ([2]; 0.01 mg/kg i.p. daily throughout the experimental course (longer duration)) was “does enhance recovery effectively”, the “recovery (disease score)” value ([2]; 0.01 mg/kg i.p. for only four days from onset) was “does not enhance recovery” and the “percentage … (score ≤0.5 by day 23)” value ([2]; 0.1 mg/kg daily i.p. from onset) was 100%. The “disease score (full recovery from paralysis)” value ([2]; EAE examples described herein, except short 4-day course) was less than 0.5, the “dose showing the most rapid recovery” value ([2]; daily i.p. from onset (Example 10)) was 0.01 mg/kg and the “disease score, recovery from paralysis” value ([2]; daily i.p. from onset (score ≥1), 0.3, 0.1, 0.03, 0.01 or 0.003 mg/kg) was “reduction of disease”. The “number of days in recovery” value [2, 5] was “sustained functional recovery”, the “percentage … (score ≤0.5 by day 23)” value [2, 5] was “full functional recovery” and the “disease score, recovery from paralysis” value ([2]; daily i.p. from onset, 0.01 and 0.03 mg/kg) was “complete”. For the same compound, the “peak disease score during first EAE episode” value ([2]; daily i.p. from onset, 0.3-0.003 mg/kg, vs vehicle) was “no difference in peak disease score”, the “EC50 for % recovery” value ([2]; dose-response curve fitted from 0.1 mg/kg to vehicle, daily i.p. from onset) was less than 0.001 mg/kg and the “Mouse dose for EAE (effective dose)” value ([2]; i.p., effective dose shown in FIG. 10) was 3 µg/kg/day. For the same compound, the disease score ([2]; nalfurafine 0.01 mg/kg i.p. daily in the presence of norBNI 10 mg/kg i.p. weekly) was “effective at reducing disease”, the “reduction in disease (total disability)” value ([3]; 0.1 mg/kg daily i.p. from day 17, day 45) was 60% and the “dose showing the most rapid recovery” value ([3]; daily i.p. from day 17 (Example 1)) was 0.1 mg/kg. For the same compound, the “disease score (0-5), recovery from paralysis” value ([3]; daily i.p. from day 17, 0.1 and 0.03 mg/kg) was “complete”, the “disease score (0-5), recovery from paralysis” value ([3]; daily i.p. from day 17, 0.3, 0.1, 0.03 or 0.01 mg/kg, over 45 days) was “reduction of disease” and the “% change in body weight” value ([3]; daily i.p. from day 17, 0.3, 0.1 or 0.03 mg/kg) was “recover from EAE-induced weight loss”. For the same compound, the “total disability (AUC of daily disease score)” value ([3]; daily i.p. from day 17, 0.3, 0.1 or 0.03 mg/kg, by day 45) was “significantly lower total disability”, the onset of disease ([3]; mice not sick at start of treatment (day 17), 0.3, 0.1 or 0.03 mg/kg i.p. daily) was “did not alter the onset of disease” and the “recovery from paralysis (disease score)” value ([3]; mice not sick at start of treatment (day 17), 0.3, 0.1 or 0.03 mg/kg i.p. daily, vs vehicle) was “rapid recovery from paralysis”.
In the case of `Oc1ccc2c3c1O[C@H]1c4[nH]c5c(c4C[C@@]4(O)[C@@H](C2)N(CC2CC2)CC[C@]314)C[C@@]1(O)[C@H]2Cc3ccc(O)c4c3[C@@]1(CCN2CC1CC1)[C@H]5O4` [norBNI], the “effect on nalfurafine-mediated full recovery (score <0.5)” value ([2]; norBNI 10 mg/kg i.p. weekly with nalfurafine 0.01 mg/kg i.p. daily (Example 23)) was “abolishes the ability of nalfurafine to enable full recovery from paralysis” and the “effect on nalfurafine-mediated % recovered and days in recovery” value ([2]; norBNI 10 mg/kg i.p. weekly with nalfurafine 0.01 mg/kg i.p. daily (Example 24)) was “abolishes the ability of nalfurafine to enable and sustain recovery from paralysis”.
